Our source for the survival values is PubChem BioAssay AID463173 (ICCB-Longwood Screening Facility, Harvard Medical School, 2010).

Structures are written as SMILES. Hit rate of the full screen: of about 52,000 compounds, about 1,700 (3.3%) were called active. No stated cut-off is given here; in the data, active means survival mostly below about 52% (no sharp cut-off); inactive means mostly above about 56%. Some of the results follow.

The experiment deals with Wild type. Kind of experiment: S. aureus survival, RN4220 and DeltatarO strains – OD600, teichoic acid synthesis inhibitors, primary screen (AID 463173). The conditions noted are these: S. aureus RN4220 wild type/DeltatarO growth, OD600, 18 h, hits give low values, screened at 18.75 µg/mL (by protocol).
In the case of `Cc1ccc(C)c(N2CCN(S(=O)(=O)c3ccc4oc(=O)c5ncn(C)c5c4c3)CC2)c1`, the survival was inactive: 81%.

As for `O=C(CSC1=NCCS1)N1CCN(c2ccc(Cl)cc2)CC1`, the survival is inactive: 116%.

As to `COc1ccc(NC(=O)CCN2CCN(c3cccc(Cl)c3)CC2)cc1`, the survival is inactive: 92%.

On to `Cc1ccc(S(=O)(=O)c2nnn3c2nc(NCc2ccc(F)cc2)c2sccc23)cc1`, for which the survival is inactive: 117%.

Turning to `CCCNC(=O)c1ccc2c(c1)N(Cc1cccc(C)c1)C(=O)c1ccccc1S2`, the survival was inactive: 95%.

Consider `O=C(Cn1c(C(=O)N2CCN(C(=O)c3ccco3)CC2)cc2sccc21)c1ccccc1`, for which the survival was inactive: 118%.

Regarding `CCOc1ccc(OCC)c(NC(=O)C2CCCN(S(=O)(=O)c3ccc4c(c3)oc(=O)n4C)C2)c1` (stereo not drawn), the survival was inactive: 96%.

For `CCOc1ccc(CNC(=O)Cn2c(=O)c3cccn3c3ccc(F)cc32)cc1`, the survival is inactive: 102%.

As for `CCN1c2ccccc2-n2cccc2C12CCN(C(=O)Nc1ccccc1C(F)(F)F)CC2`, the survival was inactive: 75%.

As for `CC(=O)Nc1ccc(Nc2ncnc3c2c(-c2ccccc2)cn3-c2ccccc2)cc1`, the survival was inactive: 140%.

For the compound `O=C(Nc1ccc(F)c(Cl)c1)N1CCN(C(=O)c2nsc3ccccc23)CC1`, the survival is inactive: 70%.

As for `Cc1cc(C)cc(-n2c(SCC(=O)N3CCc4ccccc43)nc3c([nH]c4ccccc43)c2=O)c1`, the survival is active: 14%.

Turning to `C#CCNc1c2c(nc3nnnn13)CCCC2`, the survival is inactive: 104%.

Turning to `Cc1cccc(-c2nc(SCCCOc3ccccc3Cl)n3[nH]c(=O)cc3n2)c1`, the survival was inactive: 65%.

Regarding `CCn1c(C(=O)N2CCC(C(=O)N3CCN(c4cccc(C)c4C)CC3)CC2)cc2sccc21`, the survival was inactive: 59%.

As to `CCOc1ccc2nc(N3CCN(C(=O)CS(=O)(=O)c4ccc(F)cc4)CC3)sc2c1`, the survival is inactive: 69%.

Consider `CC(=O)N=c1cccc(NC(C)=O)n1O`, for which the survival is inactive: 93%.

Take `Cn1nc(C(=O)N2CCN(c3ccc(Cl)cc3)CC2)c2c1-c1ccccc1SC2`: the survival is inactive: 88%.

On to `Cc1ccc(NC(=O)Cn2nnnc2-c2ccccc2N)cc1`, for which the survival was inactive: 79%.

With `CCN(CC)C(=O)CSc1nc2cccnc2n1C`, the survival was inactive: 104%.

`O=c1c2cc3c(cc2nc2sc(Nc4ccc(F)cc4F)nn12)OCO3`: the survival was inactive: 69%.

`Cc1ccc(C)c(N2CCN(c3ncnc4c3nc3n4CCCCC3)CC2)c1`: the survival was inactive: 63%.

In the case of `O=C(C1CCCN(S(=O)(=O)c2cccs2)C1)N1CCN(c2cccc(Cl)c2)CC1` (stereo not drawn), the survival was inactive: 88%.

Turning to `NC(=O)CSc1nc2c(oc3ccccc32)c(=O)n1-c1ccccc1F`, the survival was inactive: 57%.

For the compound `c1ccc(CNc2nc3ccccc3c3nc(-c4ccccc4)nn23)cc1`, the survival is inactive: 67%.

As to `Cn1c(=O)c2nc(SCC(=O)Nc3cc(Cl)ccc3Cl)n(C)c2n(C)c1=O`, the survival was inactive: 67%.

Regarding `COc1cccc(CNC(=O)CSc2ccc(-c3sc(-c4ccccc4)nc3C)nn2)c1`, the survival was inactive: 42%.

For `COc1ccc(Cl)cc1NC(=O)N1CCC(CN2CCc3ccccc3C2)CC1`, the survival is inactive: 129%.

Take `CCOc1ccc(C(=O)NCC(c2ccco2)S(=O)(=O)c2ccc(C)cc2)cc1` (stereo not drawn): the survival was inactive: 85%.

In the case of `O=C(Cn1cc(S(=O)(=O)Cc2ccc(F)cc2)c2ccccc21)NCCc1ccccc1`, the survival was inactive: 85%.

For the compound `Cc1ccc(NC(=O)c2ccc(NC(=O)N3CCSc4ncccc43)cc2)cc1Cl`, the survival is inactive: 129%.

Turning to `O=C(NCc1ccccc1)C(c1ccc(F)cc1)N(Cc1ccco1)C(=O)c1ccccn1` (stereo not drawn), the survival was inactive: 104%.

Regarding `O=C(NC1CCCCC1)O/N=C/c1ccc(F)cc1`, the survival was inactive: 101%.

For `CCc1ccc(-n2nc3cc(C)c(NC(=O)c4cc(Cl)ccc4OC)cc3n2)cc1`, the survival is inactive: 64%.

In the case of `Cc1ccc2c(=O)cc(C(=O)Nc3sc4c(c3C(=O)NCc3ccco3)CCC4)oc2c1C`, the survival was inactive: 87%.

As to `COc1ccc(OCCn2c(C3CC(=O)N(c4ccc(F)cc4)C3)nc3ccccc32)cc1` (stereo not drawn), the survival was inactive: 84%.

Take `COc1ccc(Nc2cc(C(=O)NCCc3ccccc3)c3ccccc3n2)cc1OC`: the survival was inactive: 90%.

As to `COc1ccc2[nH]c(=O)c(CN(Cc3ccco3)C(=S)NC3CCCCC3)cc2c1`, the survival was inactive: 118%.

For `CCC(C)NC(=O)Cn1c(=O)n(Cc2ccc(C(=O)NCCCOC)cc2)c(=O)c2ccccc21` (stereo not drawn), the survival is inactive: 72%.

As to `Cc1ccc(NC(=O)c2c(N3CCCC3=O)c3cc(C)ccc3n2C)c(C)c1`, the survival was inactive: 127%.

Regarding `CCCN(C(=O)Cn1ncc2c(=O)oc3ccccc3c21)c1cccc(C)c1`, the survival was inactive: 79%.

For `Cc1ccc(CNC(=O)Cn2ncc3c(C)n(Cc4ccc(Cl)cc4)c(C)c3c2=O)cc1`, the survival was inactive: 84%.

Consider `COc1ccccc1Nc1cc(C)nc2nc(-c3ccccc3)nn12`, for which the survival was active: 14%.

Turning to `CCCCOC(=O)c1ccc(NS(=O)(=O)c2c(C)nc3scc(C)n3c2=O)cc1`, the survival is inactive: 30%.

As for `Cc1ccc(Cl)c2sc(N3CCN(C(=O)C4CC4)CC3)nc12`, the survival was inactive: 76%.

For the compound `CC(C)c1ccc(NC(=O)CSc2ncc3c(n2)-c2ccccc2N(C)S3(=O)=O)cc1`, the survival is inactive: 90%.

As to `COC(=O)c1c(NC(=O)c2ccc(S(=O)(=O)N3CCCC(C)C3)cc2)sc2c1CCN(C(C)C)C2` (stereo not drawn), the survival was inactive: 95%.

As for `CSc1ccc(CNCc2c(C(=O)O)c(C)n(Cc3ccc(F)cc3Cl)c2C)cc1`, the survival is inactive: 87%.

`Cc1ccccc1Cn1cc(S(=O)(=O)c2ccc(Cl)cc2)c(=O)c2cc3c(cc21)OCO3`: the survival was inactive: 91%.

Consider `Cc1ccccc1CNC(=O)c1c(C)oc2c1C1=NCCN1C=N2`, for which the survival is inactive: 85%.

Take `Cc1c(NC(=O)c2nc3ccccc3n(C)c2=O)cccc1[N+](=O)[O-]`: the survival is inactive: 84%.

In the case of `COc1cccc(N2CCN(C(=O)C3CCCN(S(=O)(=O)c4ccc(Br)s4)C3)CC2)c1` (stereo not drawn), the survival was inactive: 81%.

Regarding `O=C(Cn1c(=O)n2nc(-c3ccccc3)nc2c2ccccc21)Nc1ccccc1C(F)(F)F`, the survival was inactive: 90%.

On to `Nc1ncc(S(=O)(=O)NCc2cccc(Cl)c2)cn1`, for which the survival was inactive: 76%.

Regarding `O=C1[C@@H]2CSC(c3ccc(F)cc3)N2C(=O)N1c1ccc(Cl)cc1` (stereo partly drawn), the survival is inactive: 79%.

Consider `CCc1ccc(-n2c(=O)c3c4c(sc3n(Cc3ccc(F)cc3)c2=O)CCCC4)cc1`, for which the survival was inactive: 56%.

On to `COc1ccc(CNC(=O)c2cccc(N3CCCS3(=O)=O)c2)cc1`, for which the survival is inactive: 68%.

For `Cc1ccc2oc(=O)c3cnn(CC(=O)NCc4ccccc4Cl)c3c2c1`, the survival was inactive: 87%.

For `COc1cccc(C(=O)N2CC(C)OC(C)C2)c1` (stereo not drawn), the survival is inactive: 107%.

For the compound `Cc1ccc(-c2nc(CCNC(=O)C(=O)Nc3ccc(C)c(C)c3)cs2)cc1`, the survival was active: -3%.

On to `Cc1ccc(C)n1-c1nnc(N2CCC(C(=O)NCc3ccccc3Cl)CC2)s1`, for which the survival was inactive: 94%.

With `COc1ccc(S(=O)(=O)N(Cc2nc(-c3ccc(C)cc3)no2)C2CCCCC2)cc1`, the survival is inactive: 98%.

Regarding `CCC(c1nnnn1Cc1ccccc1)N1CCN(c2cccc(C)c2C)CC1` (stereo not drawn), the survival was inactive: 98%.

`CC(=O)c1cc(-c2ccc(F)cc2)n(CCC(=O)NCc2ccccc2C)c1C`: the survival is inactive: 75%.

As for `CCCCC12CN3CC(C)(CN(C1)C3c1cc(Br)ccc1O)C2=O` (stereo not drawn), the survival was inactive: 89%.

In the case of `COc1ccc(NC(=O)c2ccc3nc(CCc4ccccc4)oc3c2)cc1`, the survival is inactive: 124%.

With `COc1ccccc1NC(=O)C1CCCN(c2nnc(C)c3c(C)n(-c4ccccc4)nc23)C1` (stereo not drawn), the survival was inactive: 82%.

`COc1ccc(NC(=O)C(NC(=O)c2ccccc2NC(=O)c2ccco2)C(C)C)cc1` (stereo not drawn): the survival is inactive: 110%.

On to `CS(=O)(=O)c1ccc2nc(NC(=O)CS(=O)(=O)c3ccc(Cl)cc3)sc2c1`, for which the survival was inactive: 73%.

With `CCOC(=O)CNC(=O)Nc1cc(C(=O)NCc2cccc(F)c2)ccc1N1CCCC1`, the survival is inactive: 81%.

On to `O=C(NCC(c1cccnc1)N1CCc2ccccc21)c1ccccc1Br` (stereo not drawn), for which the survival is inactive: 78%.

Regarding `Cc1ccc(N2CCN(c3nc4ccc(C)cc4n4nnnc34)CC2)c(C)c1`, the survival was inactive: 76%.

`Cc1ccc(NC2=C(c3ccc(C(F)(F)F)cc3)C(=O)c3ccccc32)cc1F`: the survival is inactive: 67%.

Consider `COc1cccc(C2C3CN(C(C)=O)CC=C3C(C#N)=C(N)C2(C#N)C#N)c1` (stereo not drawn), for which the survival was inactive: 100%.

Consider `CCOc1ccccc1NC(=O)CSc1nc2ccccc2c2nc(CCn3cncc3C)nn12`, for which the survival was inactive: 125%.

As to `CCOc1cc(C(=O)Nc2ccc(-c3nc4cc(C)ccc4o3)cc2)cc(OCC)c1OCC`, the survival was inactive: 49%.

Turning to `O=C(Nc1ccc2nc(SCC(=O)N3CCCC3)sc2c1)c1ccccc1`, the survival was inactive: 86%.

Regarding `COc1cc2c(-c3ccccc3C)nc3c(c(C)nn3-c3ccccc3)c2cc1OC`, the survival is inactive: 40%.

Regarding `CCCN(CCC)C(=O)Cn1c(=O)n(-c2cccc(C(F)(F)F)c2)c(=O)c2c(C)c(C)sc21`, the survival was inactive: 83%.

Turning to `O=C(Cn1c(=O)n(Cc2ccco2)c(=O)c2cccnc21)Nc1ccccc1F`, the survival was inactive: 78%.

On to `Cc1ccc(OCC(=O)Nc2c(C(=O)c3ccccc3)oc3ccccc23)cc1C`, for which the survival is inactive: 85%.

Turning to `CCc1ccc(NC(=O)CC2C(=O)N(c3cccc(C)c3)C(=O)N2Cc2cccs2)cc1` (stereo not drawn), the survival is active: -3%.

Consider `Cc1ccc(S(=O)(=O)Nc2nc(O)c(C3=c4ccccc4=NC3=O)s2)cc1`, for which the survival is inactive: 103%.

For `CCOC(=O)c1noc2nc(C)n(CC(=O)Nc3cc(Cl)ccc3OC)c(=O)c12`, the survival is inactive: 120%.

As for `COc1cc(C(=O)Nc2ccc3nn(-c4ccc(F)cc4)nc3c2)cc(OC)c1OC`, the survival is inactive: 84%.

On to `CCCCn1c(=O)n(-c2ccc(Br)cc2F)c(=O)c2c3c(sc21)CN(C(C)=O)CC3`, for which the survival was inactive: 81%.

Regarding `COc1ccc(CNC(=O)Cn2c(SCC(=O)N(C)c3ccccc3)nc3ccccc32)cc1`, the survival is inactive: 98%.

For the compound `Cc1csc2nc(COC(=O)c3ccc(NC(=O)COc4ccccc4F)cc3)cc(=O)n12`, the survival is inactive: 134%.
